This is one part of the list. At the low end of the ranking the order means little.

For the test, the target named is T1, GST-Rok-C97-191 (UniProt O34857).
T1 sequence: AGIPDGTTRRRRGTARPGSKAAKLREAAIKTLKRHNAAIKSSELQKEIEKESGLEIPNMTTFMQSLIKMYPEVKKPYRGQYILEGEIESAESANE
The test is described as follows: protein binding microarray.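 Note: rank score from −0.5 (least bound) to 0.5 (best bound).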 As to conditions: Rok is a gene silencer of Bacillus subtilis; high values mean tight binding; most listed sequences are background and not binding sites; double strand, one strand shown.
CCCTCGTA displayed a binding signal of -0.15 E-score.

As to CTAGTCGA, the binding signal stood at 0.131 E-score.

Sequence AAGAAAAG yielded a binding signal of 0.0235 E-score.

Consider CGCTCCGA, for which the binding signal was -0.146 E-score.

AATTCGAT yielded a binding signal of 0.215 E-score.

As to AACGGTAT, the binding signal was determined as 0.228 E-score.

Turning to CATGCCCG, the binding signal is -0.336 E-score.

On to AGGTTCGC, for which the binding signal is -0.176 E-score.

Turning to TCAGTGAA, the binding signal is -0.229 E-score.

In the case of ACACAGGT, the binding signal was -1.45e-06 E-score.

As for CCGTGGGC, the binding signal is -0.251 E-score.

In turn, CTGGGTAC displayed a binding signal of -0.0998 E-score.

GATTTTAC had a binding signal of 0.226 E-score.

The sequence AGAGTTCG gave a binding signal of -0.129 E-score.

Take AGTAGAAG: the binding signal worked out at 0.276 E-score.

In turn, GCTCAGAA showed a binding signal of -0.0988 E-score.

ACAACTAA displayed a binding signal of 0.136 E-score.

In turn, ACTTGCAG had a binding signal of 0.0435 E-score.

ACCCCGTA: the binding signal was -0.101 E-score.

For the sequence CTCCACCC, the binding signal is -0.221 E-score.

Sequence CACCCACC yielded a binding signal of -0.147 E-score.

AGTCTAGC returned a binding signal of 0.0122 E-score.

For the sequence CCGTAGCG, the binding signal was -0.0263 E-score.

On to GATAGAGC, for which the binding signal was -0.0336 E-score.

As to ACGACAAT, the binding signal was found to be 0.132 E-score.

AGGCCTCA: the binding signal is -0.23 E-score.

On to CTCTTAGA, for which the binding signal was -0.0403 E-score.

With AGCCACAC, the binding signal is -0.246 E-score.

In turn, GATGATCA yielded a binding signal of 0.0879 E-score.

The sequence AGTGCGCC registered a binding signal of -0.0742 E-score.

Regarding CCCGATTC, the binding signal was -0.316 E-score.

As to GAATGAAA, the binding signal is 0.01 E-score.

On to CCCCCTTC, for which the binding signal was -0.396 E-score.

In turn, GGCAAACA came in with a binding signal of -0.0846 E-score.

Sequence CAGACTCA had a binding signal of -0.229 E-score.

With ACCGACTC, the binding signal was -0.0597 E-score.

Sequence CACTGATA gave a binding signal of -0.0443 E-score.

In turn, AAGTTCGT had a binding signal of -0.0647 E-score.

TAGCACTA returned a binding signal of 0.191 E-score.

In the case of CAAAGGTG, the binding signal is -0.221 E-score.

ACATTCCA came in with a binding signal of 0.0235 E-score.

Regarding ACAATAAT, the binding signal came to 0.251 E-score.

AGTGCAAC gave a binding signal of -0.215 E-score.

Take ATTCGTCC: the binding signal was -0.11 E-score.

The sequence GGCTACCA returned a binding signal of -0.0181 E-score.

AAACTCTG had a binding signal of 0.0882 E-score.

The sequence CTTCCATA came in with a binding signal of -0.0121 E-score.

In the case of CGATTAAA, the binding signal was 0.119 E-score.

ACTGGTGA yielded a binding signal of -0.0162 E-score.

ACATGCCA displayed a binding signal of -0.0276 E-score.

In turn, CCTCCTAA registered a binding signal of -0.0537 E-score.

Consider GCACTCCC, for which the binding signal is -0.276 E-score.

The sequence GGGCATAA registered a binding signal of -0.109 E-score.

In the case of CTTCGAAA, the binding signal was -0.113 E-score.

Consider ATTAATGC, for which the binding signal came out at 0.154 E-score.

As for AGGGACCG, the binding signal was -0.299 E-score.

The sequence TTGAGCAA returned a binding signal of 0.035 E-score.

ATTCGCAG gave a binding signal of -0.0515 E-score.

The sequence CATTCGGA registered a binding signal of 0.0299 E-score.

For the sequence CACGTTTA, the binding signal is -0.0745 E-score.

On to AGGTGTTG, for which the binding signal came out at 0.0432 E-score.

The sequence ACCTATCT gave a binding signal of 0.293 E-score.

Turning to CAGCCAGA, the binding signal was -0.104 E-score.

For CCTTGGAG, the binding signal is -0.145 E-score.

With AGTACACC, the binding signal is 0.0138 E-score.

With ATCGGTTA, the binding signal was determined as 0.0215 E-score.

AGTCCTCC had a binding signal of -0.0852 E-score.

Turning to ACAACTCA, the binding signal came to 0.0783 E-score.

In turn, ATAACACG gave a binding signal of 0.11 E-score.

GAATTCGA yielded a binding signal of 0.192 E-score.

TAACCACA: the binding signal is -0.00749 E-score.

As for CTGAGCAG, the binding signal is -0.243 E-score.

As to TAACTCCA, the binding signal worked out at 0.0761 E-score.

CAAACTAA showed a binding signal of 0.374 E-score.

In turn, ACAGGCAC registered a binding signal of -0.0537 E-score.

On to CCTACTGC, for which the binding signal was -0.027 E-score.

In turn, ACTCGAGC had a binding signal of -0.03 E-score.

The sequence ATGAGCCA yielded a binding signal of -0.0549 E-score.

For the sequence CCAAATTA, the binding signal is 0.324 E-score.

ATAGACCC: the binding signal was -0.12 E-score.

As to GCTTCCTA, the binding signal was -0.071 E-score.

In turn, ATATTGAG returned a binding signal of 0.155 E-score.

CGGGCCAA: the binding signal is -0.193 E-score.

Regarding CTGTATAC, the binding signal came to 0.172 E-score.

In turn, CCTCCCGA yielded a binding signal of -0.0654 E-score.

In the case of GAGTAGAC, the binding signal was -0.107 E-score.

The sequence AGGGGGCA registered a binding signal of -0.249 E-score.

AAGCACGC: the binding signal is -0.101 E-score.

As for CTGTGAAA, the binding signal is -0.0748 E-score.

The sequence CGTGTGGC showed a binding signal of -0.156 E-score.

For CGGATTAA, the binding signal worked out at 0.0741 E-score.

Sequence CTTTCCCA returned a binding signal of -0.31 E-score.

The sequence CTTATTTC returned a binding signal of 0.221 E-score.

Take CAGAAGCC: the binding signal is -0.158 E-score.

Sequence AACATTCG had a binding signal of 0.0387 E-score.

With ATCCTCTA, the binding signal turned out to be 0.0855 E-score.

TAATATCA displayed a binding signal of 0.282 E-score.

ACAAGGGC showed a binding signal of -0.198 E-score.

For CATACTCA, the binding signal was found to be 0.0499 E-score.

GTCCCGAA: the binding signal was -0.314 E-score.

On to CACCCAGC, for which the binding signal is -0.118 E-score.

The sequence GCTACCAC had a binding signal of 0.0411 E-score.

Sequence AGGCAATG showed a binding signal of -0.142 E-score.

Sequence ACGCCTTG displayed a binding signal of -0.338 E-score.

With CCCTATCC, the binding signal was -0.154 E-score.

With ACTGTCCG, the binding signal was -0.0981 E-score.

The sequence GTATCCCA gave a binding signal of 0.0935 E-score.

Sequence CACTACCC gave a binding signal of -0.0292 E-score.

Sequence CTAAGTAC showed a binding signal of 0.245 E-score.

For the sequence CGAATGCG, the binding signal was -0.135 E-score.

Regarding CAATCACC, the binding signal is -0.0486 E-score.

Regarding GGAGTCCC, the binding signal was -0.039 E-score.

In turn, ACAGTGAG had a binding signal of -0.0372 E-score.

As for CCGAAGAC, the binding signal was -0.137 E-score.

Consider ACATTGGC, for which the binding signal is -0.0629 E-score.

With CAGGGATA, the binding signal is -0.133 E-score.

The sequence CCGGAGAG showed a binding signal of -0.244 E-score.

AAGACATC gave a binding signal of -0.0409 E-score.

TGAACAAA: the binding signal was -0.124 E-score.

AGGCCCAG: the binding signal was -0.0838 E-score.

Sequence TCTTAAGA had a binding signal of 0.0975 E-score.

Consider CCTCCTCG, for which the binding signal was -0.258 E-score.

On to ATGACGTG, for which the binding signal is -0.113 E-score.

Sequence GCCCGGGC returned a binding signal of -0.409 E-score.

ATATGACC returned a binding signal of 0.15 E-score.

AATCCATG: the binding signal is -0.019 E-score.

For the sequence AGGGTTGG, the binding signal was -0.162 E-score.

Regarding CACAGACG, the binding signal is -0.0542 E-score.

Turning to ACTTATGG, the binding signal stood at 0.011 E-score.

GCGTGGCC had a binding signal of -0.278 E-score.

Sequence TCAAGGAA displayed a binding signal of -0.0876 E-score.

On to CAGTCCGC, for which the binding signal is -0.361 E-score.

The sequence GCTTAGGA registered a binding signal of -0.0674 E-score.

For the sequence ATTAATAA, the binding signal was found to be 0.234 E-score.

The sequence AACGCTCA yielded a binding signal of 0.0171 E-score.

GTAACCGA gave a binding signal of -0.0498 E-score.

In turn, GTTCTTAA came in with a binding signal of 0.193 E-score.

Sequence CGGTCAAC gave a binding signal of -0.0555 E-score.

Sequence CCTACCCA gave a binding signal of -0.17 E-score.

Consider TCGCGCCA, for which the binding signal is -0.126 E-score.

As for ACTGATAA, the binding signal was 0.287 E-score.

Sequence ACTTTTAC returned a binding signal of 0.218 E-score.

CTAATAGC had a binding signal of 0.294 E-score.

In the case of CCGGTTCC, the binding signal is -0.144 E-score.

The sequence CTCGTTGA came in with a binding signal of -0.00076 E-score.

Regarding ACTATACC, the binding signal is 0.21 E-score.

With AAAACACC, the binding signal is 0.111 E-score.

The sequence ATCAGAAT returned a binding signal of 0.064 E-score.

The sequence ATACACAA returned a binding signal of 0.0784 E-score.

AGCATACG gave a binding signal of -0.0107 E-score.

Take GTTGCGTA: the binding signal was -0.0822 E-score.

In turn, AATGACAG returned a binding signal of -0.102 E-score.

In the case of CGGATATC, the binding signal is 0.0392 E-score.

Turning to ACACCTGA, the binding signal was -0.0165 E-score.

TTACAGAA displayed a binding signal of 0.16 E-score.

On to TATCAAGA, for which the binding signal came out at 0.0331 E-score.

For the sequence AGACTCGC, the binding signal was -0.123 E-score.

CGAGTGTA displayed a binding signal of 0.097 E-score.

AAACAATC had a binding signal of 0.0266 E-score.

With GCGACTAC, the binding signal is 0.0895 E-score.

In the case of AGGCAGGA, the binding signal is 0.0634 E-score.

Sequence GCCGATAC displayed a binding signal of -0.0184 E-score.

As to AAGACTTC, the binding signal was -0.0221 E-score.

For AAGCCGGC, the binding signal was -0.114 E-score.

For the sequence ATTTGTAC, the binding signal came to 0.333 E-score.

In the case of TGACCGCA, the binding signal was -0.102 E-score.

CACGATCG had a binding signal of -0.0966 E-score.

Sequence TGGTAGAA came in with a binding signal of 0.468 E-score.

As for AAGAAGAG, the binding signal is -0.15 E-score.

In turn, CCTATTAG returned a binding signal of 0.16 E-score.

Take CCCGCTGC: the binding signal was -0.284 E-score.

ATTTGCCC yielded a binding signal of -0.0766 E-score.

These data come from publication PMC6212790.
